Holding throughout (assay): antibody binding signal (normalised fluorescence) (arbitrary fluorescence units); higher = stronger serum antibody binding to peptide
Assay [1] relates to pooled sera of chronic Chagas disease patients, Argentina. How it is done: (§1)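 Microarray of 15-residue peptides over residues 30-55 of Trypanosoma cruzi TSSAII, each with 1 to 10 substitutions at naturally variable positions, probed with one serum pool per country.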
In assay [2] the test system is pooled sera of chronic Chagas disease patients, Bolivia. How it is done: as §1
Assay [3] relates to pooled sera of chronic Chagas disease patients, Brazil. The procedure:
as §1

The test system of assay [4] is pooled sera of chronic Chagas disease patients, Colombia. How it is done: as §1
The subject of assay [5] is pooled sera of chronic Chagas disease patients, Mexico. The procedure:
as §1

Assay [6] relates to pooled sera of chronic Chagas disease patients, USA. How it is done: as §1
In assay [7] the test system is pooled sera of uninfected people, Argentina. The procedure: as §1
The test system of assay [8] is pooled sera of uninfected people, Bolivia. The procedure:
as §1

For assay [9], the system named is pooled sera of uninfected people, Brazil. How it is done:
as §1

Assay [10] has as its system pooled sera of uninfected people, Mexico. The procedure:
as §1

The subject of assay [11] is pooled sera of uninfected people, USA. How it is done: as §1

The list shows a part of the results. Antibody binding of pooled human sera (four to six donors per pool; dilution not stated) to peptides of the Trypanosoma cruzi antigen TSSA on microarrays. Quantile-normalised fluorescence in arbitrary units, mean of duplicate arrays; higher = more binding. No active / inactive call. The uninfected pools are read here as the healthy donors of the same country. The strongest signals lie near the top of the scale (about 60,000).

DKKTAAGGTPSQSGA: the antibody binding signal in assay [1] was 736; in assay [2], 217; in assay [3], 235; in [4], 9310; in [5], 440; in assay [6], 1760. For the same sequence, the antibody binding signal in assay [7] was found to be 249; in assay [8], 108; in assay [9] it was 833; in [10] it was 678; in assay [11] it was 207.

Consider ENKPATGETPSQSGA, for which the antibody binding signal came out at 38500 in [1]; 38100 in [2]; 40800 in assay [3]; 286 in [4]; 455 in assay [5]; 29200 in assay [6]. For the same sequence, the antibody binding signal came to 344 in [7]; 453 in [8]; 337 in assay [9]; 2030 in assay [10]; 223 in assay [11].

For KKAATGEAPSPSGAS, the antibody binding signal amounted to 6280 in assay [1]; 8720 in [2]; 18200 in [3]; 196 in [4]; 203 in assay [5]; 17100 in assay [6]. Also, the antibody binding signal was 511 in assay [7]; 177 in assay [8]; 109 in [9]; 96.7 in [10]; 275 in assay [11].

For the sequence ENKAAAGETPSPSGA, the antibody binding signal is 490 in assay [1]; 520 in [2]; 8190 in assay [3]; 323 in [4]; 242 in [5]; 3310 in assay [6]. Moreover, the antibody binding signal is 176 in assay [7]; 201 in assay [8]; 113 in assay [9]; 178 in assay [10]; 712 in [11].

With DNKAAAGETPSQPGA, the antibody binding signal in [1] was 1750; in assay [2] it was 4840; in [3] it was 38700; in assay [4] it was 217; in [5], 200; in assay [6], 1860. Besides, the antibody binding signal in assay [7] is 125; in assay [8] it was 810; in assay [9], 234; in [10], 301; in assay [11] it was 140.

Consider NKAATGEAPSQPGAS, for which the antibody binding signal came out at 17600 in [1]; 41600 in assay [2]; 45500 in assay [3]; 188 in assay [4]; 212 in [5]; 26100 in assay [6]. Further, the antibody binding signal in assay [7] worked out at 580; in assay [8], 895; in assay [9] it was 422; in [10] it was 270; in assay [11], 984.

Turning to DKKPATGGTPSQSGA, the antibody binding signal in [1] is 729; in assay [2], 391; in assay [3] it was 553; in assay [4] it was 1280; in assay [5], 703; in assay [6], 668. Also, the antibody binding signal in assay [7] came out at 340; in assay [8], 281; in assay [9], 756; in assay [10], 157; in assay [11], 180.

For PPSGTDKKPAAGETP, the antibody binding signal stood at 18700 in assay [1]; 25000 in assay [2]; 42700 in assay [3]; 5630 in assay [4]; 42500 in assay [5]; 3650 in [6]. Moreover, the antibody binding signal in assay [7] came out at 585; in assay [8], 498; in assay [9] it was 514; in assay [10] it was 4720; in assay [11], 338.

Consider NKTAAGGTPSPPGAS, for which the antibody binding signal in assay [1] worked out at 1240; in assay [2], 359; in assay [3], 2210; in assay [4] it was 5160; in assay [5], 591; in [6] it was 1440. The antibody binding signal in assay [7] came to 622; in assay [8], 1160; in assay [9], 1550; in assay [10], 914; in [11], 1630.

KDNKAAAGEAPSPPG: the antibody binding signal in assay [1] was determined as 606; in assay [2], 243; in assay [3], 17700; in assay [4], 316; in assay [5] it was 225; in assay [6] it was 10500. In addition, the antibody binding signal is 364 in assay [7]; 1940 in [8]; 146 in [9]; 104 in assay [10]; 116 in assay [11].

With GTDNKAAAGGAPSQP, the antibody binding signal in assay [1] worked out at 404; in [2], 1950; in [3] it was 29800; in assay [4], 2690; in assay [5] it was 378; in assay [6] it was 316. In addition, the antibody binding signal in [7] is 184; in assay [8], 643; in assay [9], 1510; in assay [10], 225; in [11], 194.

Turning to TDNKTAAGETPSQSG, the antibody binding signal in assay [1] worked out at 188; in assay [2], 377; in [3], 2180; in assay [4], 180; in [5] it was 273; in [6] it was 236. For the same sequence, the antibody binding signal worked out at 124 in [7]; 387 in assay [8]; 447 in [9]; 193 in assay [10]; 133 in [11].

For TISTPPSGTEKKPAA, the antibody binding signal amounted to 44300 in [1]; 11500 in assay [2]; 41700 in [3]; 912 in [4]; 34400 in [5]; 10700 in assay [6]. For the same sequence, the antibody binding signal in assay [7] was determined as 2270; in assay [8] it was 1140; in assay [9] it was 874; in assay [10], 226; in assay [11], 972.

For the origin of these results see the supplement of paper PMC10441789.
